This is an account of results in paper PMC4336329 (PLoS ONE, 2015).

The structures appear in SMILES notation. Screen size: about 310,000 compounds; about 2,200 (0.71%) showed an effect of 50% or more. Effects have a minus sign here. The list shows a part of the results.

In the assay the target is human ether-à-go-go-related gene (hERG) potassium channel (human, UniProt Q12809). In words: primary screen, population patch clamp on CHO cells stably expressing hERG.
Chain of human ether-à-go-go-related gene (hERG) potassium channel (Q12809 whole entry, looked up): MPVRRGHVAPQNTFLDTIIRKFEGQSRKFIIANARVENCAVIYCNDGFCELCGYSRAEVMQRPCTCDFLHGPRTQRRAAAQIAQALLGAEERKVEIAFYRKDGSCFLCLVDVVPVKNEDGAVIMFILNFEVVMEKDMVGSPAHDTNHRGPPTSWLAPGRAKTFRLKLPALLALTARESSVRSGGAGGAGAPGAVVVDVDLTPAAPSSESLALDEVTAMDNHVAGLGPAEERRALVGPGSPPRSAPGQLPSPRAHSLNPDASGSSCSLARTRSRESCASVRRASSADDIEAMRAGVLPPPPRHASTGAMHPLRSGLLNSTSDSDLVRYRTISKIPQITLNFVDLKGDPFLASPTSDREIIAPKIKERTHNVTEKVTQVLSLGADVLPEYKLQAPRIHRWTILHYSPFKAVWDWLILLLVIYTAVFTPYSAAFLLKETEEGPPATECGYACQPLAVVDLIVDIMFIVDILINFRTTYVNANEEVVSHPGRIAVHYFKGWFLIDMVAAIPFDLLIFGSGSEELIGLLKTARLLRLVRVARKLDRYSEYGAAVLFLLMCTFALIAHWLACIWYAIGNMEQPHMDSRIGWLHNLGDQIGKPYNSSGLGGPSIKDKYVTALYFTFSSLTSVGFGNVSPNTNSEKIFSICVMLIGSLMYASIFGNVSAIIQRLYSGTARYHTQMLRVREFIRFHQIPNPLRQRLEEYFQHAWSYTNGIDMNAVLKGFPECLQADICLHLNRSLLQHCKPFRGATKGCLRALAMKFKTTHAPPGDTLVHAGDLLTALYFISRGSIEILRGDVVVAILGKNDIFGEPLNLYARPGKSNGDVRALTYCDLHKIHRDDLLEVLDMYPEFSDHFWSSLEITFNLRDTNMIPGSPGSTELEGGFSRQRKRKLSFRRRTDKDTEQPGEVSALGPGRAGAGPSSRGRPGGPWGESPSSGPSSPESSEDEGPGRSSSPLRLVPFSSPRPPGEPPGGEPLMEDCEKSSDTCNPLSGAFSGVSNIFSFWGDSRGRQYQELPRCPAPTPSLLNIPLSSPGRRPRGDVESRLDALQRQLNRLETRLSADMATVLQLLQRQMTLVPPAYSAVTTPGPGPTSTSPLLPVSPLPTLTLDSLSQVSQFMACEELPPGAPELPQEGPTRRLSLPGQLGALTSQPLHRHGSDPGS
With `COc1ccc(CNC(=O)C2CCN(C(=O)c3ccccc3)CC2)cc1`, the “hERG current change (%, negative = inhibition) at 1uM” value is given as 12.9%. As for `COC(=O)c1ccc(COC(=O)CNS(=O)(=O)c2ccccc2)cc1`, the “hERG current change (%, negative = inhibition) at 1uM” value stood at 8.43%. To `CCOC(=O)c1cc2c(=O)n3ccccc3nc2n(Cc2ccco2)c1=NC(=O)c1cccc(OC)c1` belongs 5.14%; to `Fc1ccc(-c2nnc(Cc3nnc(-c4ccc(F)cc4)o3)o2)cc1`, 7.24%; to `CCCCn1nnnc1SCC(=O)N1CCN(C(=O)c2ccco2)CC1`, -4.83%. As for `Cc1cc2c(c(=O)o1)C(C13C=CC(CC1)C3)C(C#N)=C(N)O2` (stereo not drawn), the “hERG current change (%, negative = inhibition) at 1uM” value is -4.19%. To `N#Cc1c(-c2ccccc2)nc2n(c1=O)CCS2` belongs 15.1%; to `COc1ccc(N(CC(=O)NC2CCCCCC2)S(=O)(=O)c2ccccc2)cc1Cl`, 19.2%. As to `COc1ccc(C(=O)N/N=C/c2ccc(OC)c(CN3CCc4cc(OC)c(OC)cc4C3C)c2)cc1` (stereo not drawn), the “hERG current change (%, negative = inhibition) at 1uM” value was -85.1%. `CCOc1ccc(Nc2nc(Cl)nc(NCCO)n2)cc1`: the “hERG current change (%, negative = inhibition) at 1uM” value was 19.3%. In the case of `COc1ccccc1NC(=S)NNC(=O)c1ccc(O)cc1`, the “hERG current change (%, negative = inhibition) at 1uM” value stood at 8.94%. On to `CCOc1ccc(C)cc1S(=O)(=O)Nc1ccc(Cl)cn1`, for which the “hERG current change (%, negative = inhibition) at 1uM” value is reported as -0.0375%. To `CN(CC(=O)O)S(=O)(=O)/C=C/c1ccccc1` belongs 23.2%; to `COc1ccc(S(=O)(=O)N(C)CC(=O)N2CCN(C)CC2)cc1C`, 6.2%; to `COc1ccc(S(=O)(=O)N2CCOCC2)cc1NC(=O)COc1cccnc1[N+](=O)[O-]`, 11%. With `CCOC(=O)NC(=O)COC(=O)c1cccc2ccccc12`, the “hERG current change (%, negative = inhibition) at 1uM” value is -2.29%. Take `CCn1c(=O)c(CCC(=O)N2CCOCC2)c(C)c2c(C)nn(-c3ccccc3)c21`: the “hERG current change (%, negative = inhibition) at 1uM” value worked out at 9.79%. With `CC(C)(C)C(=O)Nc1sc2c(c1C#N)CCCCC2`, the “hERG current change (%, negative = inhibition) at 1uM” value was found to be 10.1%. As for `C=CCNC(=S)Nc1cccc([N+](=O)[O-])c1`, the “hERG current change (%, negative = inhibition) at 1uM” value is 3.94%. On to `O=[N+]([O-])c1cnc(Sc2ccncn2)s1`, for which the “hERG current change (%, negative = inhibition) at 1uM” value turned out to be 13%. Turning to `O=C1/C(=C/c2cccnc2)SC(=S)N1CCc1ccccc1`, the “hERG current change (%, negative = inhibition) at 1uM” value came out at 5.32%. With `COc1ccc(C2C(=O)N(CCc3ccccc3)CC(=O)N2C2CCCC2)cc1` (stereo not drawn), the “hERG current change (%, negative = inhibition) at 1uM” value is given as 5.07%. In the case of `O=C(CSc1ncn[nH]1)N1CCN(S(=O)(=O)c2ccccc2)CC1`, the “hERG current change (%, negative = inhibition) at 1uM” value is recorded as 22.6%. `COC(=O)c1cc(OC)c(OC)cc1N1C(=O)CCCC1=O`: the “hERG current change (%, negative = inhibition) at 1uM” value came to 12.5%. Next, `COc1ccccc1N=Cc1nc(-c2ccccc2)oc1OC(C)=O`: 12.9%; `CCN1C/C(=C/c2ccc(N3CCOCC3)cc2)C(=O)/C(=C/c2ccc(N3CCOCC3)cc2)C1`: 8.45%. For `COc1ccc(-c2noc(CCN3C(=O)c4ccccc4C3=O)n2)cc1OC`, the “hERG current change (%, negative = inhibition) at 1uM” value is -7%. With `COc1ccccc1N1CCN(C(=O)CSc2ncnc3scc(-c4ccccc4)c23)CC1`, the “hERG current change (%, negative = inhibition) at 1uM” value is given as 6.87%. Consider `COc1cccc(CNCCNC(=O)c2ccco2)c1OC.O=C(O)C(=O)O`, for which the “hERG current change (%, negative = inhibition) at 1uM” value was -8.28%. Turning to `CCC1CCc2c([nH]c3ccccc3c2=O)O1` (stereo not drawn), the “hERG current change (%, negative = inhibition) at 1uM” value came out at 5.16%. To `COc1ccccc1CN(Cc1nc2ccccc2c(=O)[nH]1)C(=O)Nc1cccc(C)c1` belongs 4.17%. Next, `Cc1cc2c([nH]c3ccccc32)c2c1OC(C)(C)C=C2`: -6.27%; `Cc1ccc(CS(=O)(=O)c2ncc(Cl)c(C(=O)Nc3nnc(C)s3)n2)cc1`: 7.77%; `CC(=O)C1=C(C)NC(SCC(=O)c2ccc(C)cc2)=C(C#N)C1c1ccco1` (stereo not drawn): 8.75%.

`O=C(O)c1ccc2c(c1)NC(=O)C(N1CCCC1)S2` (stereo not drawn): the “hERG current change (%, negative = inhibition) at 1uM” value was 8.79%. `COc1cc(CN2CCN(c3cccc(Cl)c3)CC2)cc(OC)c1OC`: the “hERG current change (%, negative = inhibition) at 1uM” value stood at 4.64%.

For `Cc1ccc(S(=O)(=O)NNC(=O)c2ccccc2-n2cccc2)cc1`, the “hERG current change (%, negative = inhibition) at 1uM” value is recorded as -0.694%. As to `COC(=O)C1=C(c2ccc(F)cc2OCc2ccccc2)C[C@@H]2CC[C@H]1N2C(=O)N1CCOCC1`, the “hERG current change (%, negative = inhibition) at 1uM” value was found to be 3.52%.

As to `Clc1nc2ccccc2cc1/C=N/Nc1nc2ccccc2[nH]1`, the “hERG current change (%, negative = inhibition) at 1uM” value was 15.3%.

Consider `COc1ccc(-c2ccc(-c3nnc(Cc4ccc(OC)c(OC)c4)o3)cc2)cc1`, for which the “hERG current change (%, negative = inhibition) at 1uM” value is -2.04%. With `O=C1c2cccc(OCc3ccc(F)cc3)c2CCN1Cc1ccccc1`, the “hERG current change (%, negative = inhibition) at 1uM” value is listed as 8.58%. Next, `Cc1cc(C)n(-c2nnc(C)n2NS(C)(=O)=O)n1`: 14.6%; `COCCNC(=O)c1ccc(S(=O)(=O)c2ccc(Cl)cc2)c(NC(C)=O)c1`: 12%; `Cc1cccc(OCCCC(=O)NCCc2ccccc2)c1`: 15%. For the compound `CCOC(=O)c1c(S(=O)(=O)NCC2CCN(CCc3cccs3)CC2)c(C)n(C)c1C`, the “hERG current change (%, negative = inhibition) at 1uM” value is -2.88%.
